Laboratory results taken from PubChem BioAssay AID624296 (National Center for Advancing Translational Sciences (NCATS), 2012).
In all, about 350,000 compounds went through this assay and about 9,900 (2.8%) were called active. The shares of active, inactive and inconclusive entries below differ from those in the screen. Calls follow the shape of the dose curve; as a rule, active = well fitted activation curve with a large enough effect; inconclusive = small, poorly fitted or top-dose-only effect; inactive = no such curve, though single readings can be large or run the other way. Potencies of inconclusive entries are left out as doubtful fits.

assay: A quantitative high throughput screen for small molecules that induce DNA re-replication in MCF 10a normal breast cells.; also: nearly all actives have a fitted effect of over 50% in size; details: MCF 10A DNA re-replication, Hoechst nuclear intensity, 48 h; series mostly up to 46.1 µM
Potency is read from the fitted curve at half-maximal effect; tags tell the direction and shape of the fitted curve.

Row | SMILES | Potency
1 | CCOc1cc(C(=O)Nc2cccc(OCC(=O)N3CCOCC3)c2)cc(OCC)c1OCC | inactive
2 | COc1cccc(/C=C2\Oc3cc(OCC(=O)N4CCCCC4)ccc3C2=O)c1OC | inconclusive [activator, partial curve]
3 | c1ccc(CN2CCC(Nc3nc(-c4ccccc4)nc4ccccc34)CC2)cc1 | inconclusive [activator, single point]
4 | Cc1cc(C)nc(N(C#N)CC(=O)c2ccccc2)n1 | inconclusive [activator, partial curve]
5 | Cn1c(=O)c(=O)n(C)c2cc([N+](=O)[O-])c(N3CCOCC3)cc21 | inactive
6 | COc1cccc2sc(N3CCN(c4nc5ccccc5s4)CC3)nc12 | inconclusive [activator, partial curve, poor fit]
7 | COc1ccccc1NC(=O)c1ccc(NC(=O)c2ccc(=O)[nH]c2)cc1 | inconclusive [activator, single point]
8 | Cn1nnnc1SCC(=O)Nc1nc2c(F)c(F)c(F)cc2s1 | inactive
9 | CCN=C1NN=C(c2c[nH]c3ccccc23)CS1 | inactive
10 | O=C(NCCCN1CCOCC1)C(=O)N/N=C/c1c(Cl)cccc1Cl | inactive
11 | CC(=O)N1CCc2c(sc(NC(=O)CCS(=O)(=O)c3ccccc3)c2C(N)=O)C1 | inconclusive [activator, single point]
12 | Cc1ccc(CN2CCN(C3CCCC3)C(CCO)C2)s1 (configuration not stated) | inactive
13 | CN1CCc2c1nc1ccccc1c2N=C1CCCN1Cc1ccccc1 | inconclusive [activator, partial curve, poor fit]
14 | CCOC(=O)c1sc(NC(=O)c2ccc(C)s2)cc1C | inconclusive [activator, partial curve, poor fit]
15 | CSc1nnc(-c2cc3c(s2)-c2ccccc2CC3)o1 | inconclusive [activator, single point]
16 | Cc1nc2c(c(=O)n1CCC1=CCCCC1)c1nc3ccccc3nc1n2/N=C/c1ccccc1 | active: 23.1 µM
17 | C=CCNC(=O)c1ccc(CSc2nc3ccccc3s2)cc1 | inactive
18 | O=C(c1cc([N+](=O)[O-])ccc1Cl)N1CCc2ccccc21 | inactive
19 | COc1ccccc1-c1ccc(C(=O)O)o1 | inactive
20 | Cc1cc(C)nc(NS(=O)(=O)c2ccccc2)n1 | inconclusive [activator, single point]
21 | O=C(NCc1ccccc1)c1cccc(COc2cccc(Cl)c2)c1 | inconclusive [activator, single point]
22 | CCc1[nH]nc2c1C(C(C)C)C(C#N)=C(N)O2 (configuration not stated) | inconclusive [activator, partial curve, poor fit]
23 | CN(C)c1ccc(/C=C/c2nc3ccccc3c(=O)n2CCO)cc1 | active: 16.4 µM
24 | CCOc1ccc(Br)cc1S(=O)(=O)Nc1ccc(C(=O)Nc2ccccc2OC)cc1 | inconclusive [activator, partial curve, poor fit]

Row | SMILES | Potency
25 | COc1ccc(-c2nc3ccccc3n2CCC(C)C)cc1OC | inconclusive [activator, partial curve, poor fit]
26 | Brc1ccc(CSc2nnc(-c3ccccn3)n2Cc2ccco2)cc1 | inconclusive [activator, single point]
27 | O=C(Nc1ccc(C2=CN(Cc3ccccc3)CCC2=O)cc1)OCc1ccccc1 | inactive
28 | O=C(Nc1cccc(-c2nc3ncccc3o2)c1)c1sc2ccccc2c1Cl | inconclusive [activator, partial curve, poor fit]
29 | CCCCNc1c(-c2ccc(-c3cccc(Cl)c3)cc2)nc2ccc(Cl)cn12 | inactive
30 | Cc1cc(-n2c(C)cc(C(=O)COc3ccc4ccc(=O)oc4c3)c2C)no1 | inconclusive [activator, single point]
31 | CNC(=S)NN=C(C)c1ccc(OC)cc1O | inconclusive [activator, full curve, poor fit]
32 | COc1cccc(-n2c(SCC(=O)NCc3cccs3)nc3ccccc3c2=O)c1 | inconclusive [activator, partial curve, poor fit]
33 | CCOC(=O)c1ccc(-c2ccc(/C=C(\C#N)C(=O)NCC3CCCO3)o2)cc1 (configuration not stated) | inactive
34 | Cc1ccccc1NC(=O)C(=O)N/N=C/c1cccc(Br)c1 | inactive
35 | Cc1ccc(C(=O)NC2CCCc3ccccc32)cc1[N+](=O)[O-] (configuration not stated) | inconclusive [activator, partial curve, poor fit]
36 | Cc1ccc(CNC(=O)Cn2c(=O)c3sccc3n(Cc3ccc([N+](=O)[O-])cc3)c2=O)cc1 | inconclusive [activator, single point]
37 | O=c1c2ccccc2nc(SCc2cccc(F)c2)n1Cc1ccco1 | inconclusive [activator, partial curve, poor fit]
38 | Cc1ccc2nc(CSc3nc(C)cc(C)c3C#N)[nH]c2c1 | active: 1.84 µM
39 | O=S(=O)(c1ccc(Oc2ccc(Br)cc2F)nc1)N1CCCCC1 | inactive
40 | Cc1cc(/C=N/n2cnnc2)c(C)n1-c1ccc(Cl)cc1 | inactive
41 | CCC(=O)NC1=C(C#N)C2(CCCC2)Cc2ccccc21 | inactive
42 | COc1cc(/C=N\Nc2ccc([N+](=O)[O-])cc2)ccc1OCC(=O)Nc1ccc(C)c(C)c1 | active: 5.8 µM
43 | CCn1nc(C)c(/C=N/NC(=O)Cn2nccc2C)c1C | inactive
44 | CCOc1ccc(CNC(=O)c2ccc3c(c2)N(CC)CCS3)cc1 | inactive
45 | COc1ccc(CNc2nc3ccccc3n2Cc2ccc(C)cc2)cc1OC | inconclusive [activator, partial curve, poor fit]
46 | Cc1ccc(/C=N/Nc2ccc(F)cc2)s1 | inconclusive [activator, single point]
47 | CCn1nc(NS(=O)(=O)c2ccc(F)cc2)c2cc3cccc(C)c3nc21 | inconclusive [activator, single point]
48 | Cc1ccc(SC(=O)COc2ccccc2C)cc1 | inconclusive [activator, single point]

Row | SMILES | Potency
49 | COc1ccc(/C=N/Nc2ncccc2[N+](=O)[O-])c(OC)c1 | inactive
50 | Cc1ccsc1/C=N\NC(=O)Cn1nnc2ccccc21 | inconclusive [activator, single point]
51 | CN1C(=S)SC(C)(C)C1/[N+]([O-])=C/c1cccnc1 (configuration not stated) | inactive
52 | c1ccc(N(c2ccccc2)c2nc(-n3ccnc3)nc(-n3ccnc3)n2)cc1 | active: 20 µM
53 | C#CCN1C(=O)C(O)(CC(=O)/C=C/c2ccco2)c2ccccc21 (configuration not stated) | inconclusive [activator, partial curve, poor fit]
54 | Cc1cc(Cc2ccc(N)c(C)c2)ccc1N | inconclusive [activator, partial curve]
55 | CCN(CC)CCN(C(=O)c1ccc(C(=O)c2ccccc2)cc1)c1nc2cc3c(cc2s1)OCO3 | inactive
56 | CCc1nnc(NC(=O)c2ccc(S(=O)(=O)N(CC)Cc3ccccc3)cc2)o1 | inconclusive [activator, full curve]
57 | Cc1ccc(/C=C/C(=O)Nc2sc(C)c(C)c2C(=O)OC(C)C)o1 | inconclusive [activator, partial curve, poor fit]
58 | CC(Cc1ccccc1)NC(=O)/C=C/c1ccc([N+](=O)[O-])cc1 (configuration not stated) | inactive
59 | CNc1oc(-c2ccc(C)cc2)nc1P(=O)(c1ccccc1)c1ccccc1 | active: 18.4 µM
60 | CCCn1c(N)c(N(CCOC)C(=O)c2ccc(C#N)cc2)c(=O)[nH]c1=O | inactive
61 | Fc1ccc(-[n+]2nc(Nc3ccccc3)sc2-c2c(Cl)cccc2Cl)cc1 | inconclusive [activator, single point]
62 | COc1ccc(C(=O)Oc2ccc3c(c2)OCO3)cc1OC | inconclusive [activator, partial curve, poor fit]
63 | COc1cc(C(=O)NCCCN(C)C)ccc1OCC(=O)Nc1cccc(C(F)(F)F)c1 | inconclusive [activator, single point]
64 | O=C1C=C(c2ccccc2C(F)(F)F)C[C@@H](c2ccc3c(c2)OCO3)C1 | inconclusive [activator, single point]
65 | O=c1[nH]c2ccccc2c(O)c1-[n+]1ccccc1 | inconclusive [activator, single point]
66 | COc1ccc(NC(=O)c2ccc(F)cc2)cc1S(=O)(=O)Nc1cc(C)ccc1Br | active: 14.6 µM
67 | CC(C)Cn1c(-c2ccc(F)cc2)n[nH]c1=S | inactive
68 | Cc1ccc(C(=O)CC(=O)COc2ccc(Cl)cc2)cc1 | inconclusive [activator, partial curve, poor fit]
69 | CCOc1cc(NC(=O)c2ccccn2)c(OCC)cc1NC(=O)c1ccc(C)cc1 | inconclusive [activator, single point]
70 | Cc1ccc(OCC(=O)N2c3ccccc3NC(=O)C2(C)C)c([N+](=O)[O-])n1 | inconclusive [activator, partial curve, poor fit]
71 | CN(c1ccc(C(=O)N/N=C/c2cccc([N+](=O)[O-])c2)cc1)S(=O)(=O)c1ccccc1 | inconclusive [activator, single point]
72 | Cc1nn(S(=O)(=O)c2cccs2)c(C)c1Sc1ccc([N+](=O)[O-])cc1 | inconclusive [activator, single point]
